About 220 (0.56%) of roughly 39,000 compounds showed activity. This is one part of the list.
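Also: static incubation at 37 °C against the wild-type strain, values averaged over two biological replicates.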

In the assay the test system is Escherichia coli K-12 BW25113. Description: relative growth (OD600 normalised to plate interquartile mean) (fraction); higher = less growth inhibition, active = 0.2 or less. Conditions: 50 µM; LB; incubation time: overnight (16-24 h).
For the compound `Cc1noc(C)c1S(=O)(=O)Nc1ccc2c(c1)C(=O)N([C@H](C)CO)C[C@H](C)[C@@H](CN(C)Cc1ccc(Cl)c(Cl)c1)OCCCC[C@@H](C)O2`, the relative growth was inactive: 0.974.

For the compound `C[C@@H]1CN([C@@H](C)CO)C(=O)c2cc(NS(=O)(=O)c3ccc(F)cc3)ccc2O[C@H]1CN(C)Cc1ccc(Oc2ccccc2)cc1`, the relative growth is inactive: 0.984. With `C[C@H](CO)N1C[C@H](C)[C@@H](CN(C)C(=O)Nc2ccc(C(F)(F)F)cc2)Oc2ccc(NS(=O)(=O)c3ccc(Cl)cc3)cc2CC1=O` the figure was inactive: 0.982; with `COc1ccc(S(=O)(=O)Nc2ccc3c(c2)[C@@H]2C[C@H](CC(=O)NCC4CC4)O[C@@H](CO)[C@@H]2O3)cc1`, inactive: 0.985. Turning to `COc1ccc(COC[C@]23NC(=S)N[C@H](c4ccccc4O2)[C@@H]3CO[Si](C)(C)C(C)(C)C)cc1`, the relative growth is inactive: 0.976. The figure for `C[C@H](CO)N1C[C@H](C)[C@H](CN(C)CC2CC2)Oc2ccc(NS(=O)(=O)c3cn(C)cn3)cc2C1=O` is inactive: 1.01; for `C[C@@H]1CN([C@H](C)CO)S(=O)(=O)c2ccc(C#Cc3ccccc3)cc2O[C@@H]1CN(C)S(C)(=O)=O` it is inactive: 1.01; for `O=C(C[C@@H]1CC[C@@H]2[C@H](COC[C@H](O)CN2S(=O)(=O)c2cccc(F)c2)O1)NCCCN1CCOCC1` it is inactive: 1.01. On to `Cc1ccc(S(=O)(=O)N(C)C[C@@H]2OCCCC[C@@H](C)Oc3ccc(NS(=O)(=O)c4ccc(Cl)cc4)cc3C(=O)N([C@H](C)CO)C[C@@H]2C)cc1`, for which the relative growth was inactive: 0.932. With `Cc1[nH]c(=O)c(C#N)cc1-c1ccncc1` the figure was inactive: 1.09; with `COC(=O)C[C@H]1CC[C@H]2[C@@H](COC[C@@H](O)CN2S(=O)(=O)c2cn(C)cn2)O1`, inactive: 1.03. The figure for `C[C@H](CO)N1C[C@H](C)[C@@H](CN(C)C(=O)Nc2ccccc2)Oc2ccc(NC(=O)Cn3cnnn3)cc2C1=O` is inactive: 0.956. The figure for `NCCC(=O)N[C@@H](Cc1cnc[nH]1)C(=O)O.[Zn+3]` is inactive: 1.01. For `Cc1noc(C)c1NC(=O)Nc1ccc2c(c1)C(=O)N([C@H](C)CO)C[C@H](C)[C@H](CN(C)S(=O)(=O)c1ccc(F)cc1)OCCCC[C@@H](C)O2`, the relative growth is inactive: 0.969. The figure for `Cc1cc(C(=O)Nc2cccc3c2O[C@@H](CN(C)S(=O)(=O)c2cccs2)[C@H](C)CN([C@@H](C)CO)C3=O)n(C)n1` is inactive: 0.994. With `CC(C)CC#Cc1ccc2c(c1)O[C@H](CN(C)C(=O)c1cnccn1)[C@@H](C)CN([C@H](C)CO)S2(=O)=O` the figure was inactive: 0.96. The figure for `C[C@H](CO)N1C[C@H](C)[C@@H](CN(C)C(=O)Cc2ccccn2)Oc2ncc(C#CC3CCCCC3)cc2C1=O` is inactive: 0.97. As for `Cc1noc(C)c1S(=O)(=O)/N=C/N(C)C`, the relative growth was inactive: 1.03. Take `COc1ccc(S(=O)(=O)N(C)C[C@@H]2Oc3ccc(NC(=O)NC(C)C)cc3CC(=O)N([C@@H](C)CO)C[C@H]2C)cc1`: the relative growth was inactive: 1.03. With `Cc1ccc(S(=O)(=O)Nc2ccc3c(c2)CC(=O)N([C@@H](C)CO)C[C@@H](C)[C@@H](CN(C)Cc2ccc(Oc4ccccc4)cc2)O3)cc1` the figure was inactive: 1.01. With `COc1ccc(C#Cc2cnc3c(c2)C(=O)N([C@H](C)CO)C[C@@H](C)[C@H](CN(C)C(=O)CN(C)C)O3)cc1` the figure was inactive: 0.991; with `Cc1ccnc2c1NC(=O)c1cccnc1N2C1CC1`, inactive: 1.07. In the case of `COCCNC(=O)C[C@@H]1CC[C@@H]2[C@H](COC[C@@H](O)CN2C(=O)Nc2ccc3c(c2)OCO3)O1`, the relative growth is inactive: 0.991. The figure for `C[C@H](CO)N1C[C@H](C)[C@H](CN(C)S(=O)(=O)c2ccc(F)cc2)OCCCC[C@H](C)Oc2ccc(NC(=O)CCC(F)(F)F)cc2C1=O` is inactive: 1.04.

For `O=C(C[C@@H]1CC[C@H]2[C@@H](COC[C@H](O)CN2C(=O)c2cnccn2)O1)NCc1ccc(Oc2ccccc2)cc1`, the relative growth is inactive: 0.982. The figure for `C[C@H](CO)N1C[C@H](C)[C@@H](CN(C)S(=O)(=O)c2ccc(C(F)(F)F)cc2)OCc2ccccc2-c2ccccc2C1=O` is inactive: 1.04; for `C[C@@H]1CCCCO[C@@H](CN(C)C(=O)Nc2ccc(C(F)(F)F)cc2)[C@H](C)CN([C@@H](C)CO)C(=O)c2cc(NC(=O)Nc3ccccc3)ccc2O1` it is inactive: 1.01.

For `C[C@@H]1CCCCO[C@@H](CN(C)C(=O)Cc2ccccc2)[C@H](C)CN([C@H](C)CO)C(=O)c2cc(NS(=O)(=O)c3ccc(Cl)cc3)ccc2O1`, the relative growth is inactive: 0.973.

`O=C(Nc1ccn([C@H]2O[C@H](CO)[C@@H](O)[C@@H]2O)c(=O)n1)c1ccccc1`: the relative growth is inactive: 0.945.

Regarding `C[C@H]1CN([C@@H](C)CO)C(=O)Cc2cc(NC(=O)C3CCCCC3)ccc2O[C@@H]1CN(C)Cc1ccc(Oc2ccccc2)cc1`, the relative growth is inactive: 1.03. The figure for `C[C@@H]1CCCCO[C@@H](CN(C)C(=O)Nc2cccc3ccccc23)[C@H](C)CN([C@@H](C)CO)C(=O)c2cc(NS(=O)(=O)c3ccc(Cl)cc3)ccc2O1` is inactive: 1.01; for `COc1ccc(S(=O)(=O)Nc2ccc3c(c2)C(=O)N([C@@H](C)CO)C[C@H](C)[C@@H](CN(C)C(=O)NC2CCCCC2)OCCCC[C@H](C)O3)cc1` it is inactive: 1.01. Regarding `COC1C=COC2(C)Oc3c(C)c(O)c4c(O)c(c5c(nc6cc(C)ccn65)c4c3C2=O)NC(=O)C(C)=CC=CC(C)C(O)C(C)C(O)C(C)C(OC(C)=O)C1C` (configuration not stated), the relative growth is active: 0.0499. With `CC(C)NC(=O)N(C)C[C@@H]1Oc2c(NS(=O)(=O)c3ccc(Cl)cc3)cccc2C(=O)N([C@@H](C)CO)C[C@H]1C` the figure was inactive: 0.99; with `CCS(=O)(=O)Nc1ccc2c(c1)C(=O)N(C)[C@@H]1CC[C@H](CC(=O)N3CCN(C)CC3)O[C@@H]1CO2`, inactive: 1. With `Cc1noc(C)c1NC(=O)Nc1ccc2c(c1)C(=O)N([C@H](C)CO)C[C@@H](C)[C@@H](CN(C)C(=O)C1CCCCC1)OCCCC[C@@H](C)O2` the figure was inactive: 1.01; with `COc1ccc(NC(=O)Nc2cccc3c2O[C@H](CN(C)S(=O)(=O)c2c(C)noc2C)[C@@H](C)CN([C@H](C)CO)C3=O)cc1`, inactive: 0.994.

For the origin of these results see the supplement of paper PMC9446081.
